# Out of some 310,000 compounds screened, about 2,200 (0.71%) showed an effect of 50% or more. The effect is printed as a negative number. The list shows a part of the results.
# Target: human ether-à-go-go-related gene (hERG) potassium channel (human, UniProt Q12809)
# Assay: primary screen, population patch clamp on CHO cells stably expressing hERG
# Sequence of human ether-à-go-go-related gene (hERG) potassium channel (Q12809 whole entry, looked up): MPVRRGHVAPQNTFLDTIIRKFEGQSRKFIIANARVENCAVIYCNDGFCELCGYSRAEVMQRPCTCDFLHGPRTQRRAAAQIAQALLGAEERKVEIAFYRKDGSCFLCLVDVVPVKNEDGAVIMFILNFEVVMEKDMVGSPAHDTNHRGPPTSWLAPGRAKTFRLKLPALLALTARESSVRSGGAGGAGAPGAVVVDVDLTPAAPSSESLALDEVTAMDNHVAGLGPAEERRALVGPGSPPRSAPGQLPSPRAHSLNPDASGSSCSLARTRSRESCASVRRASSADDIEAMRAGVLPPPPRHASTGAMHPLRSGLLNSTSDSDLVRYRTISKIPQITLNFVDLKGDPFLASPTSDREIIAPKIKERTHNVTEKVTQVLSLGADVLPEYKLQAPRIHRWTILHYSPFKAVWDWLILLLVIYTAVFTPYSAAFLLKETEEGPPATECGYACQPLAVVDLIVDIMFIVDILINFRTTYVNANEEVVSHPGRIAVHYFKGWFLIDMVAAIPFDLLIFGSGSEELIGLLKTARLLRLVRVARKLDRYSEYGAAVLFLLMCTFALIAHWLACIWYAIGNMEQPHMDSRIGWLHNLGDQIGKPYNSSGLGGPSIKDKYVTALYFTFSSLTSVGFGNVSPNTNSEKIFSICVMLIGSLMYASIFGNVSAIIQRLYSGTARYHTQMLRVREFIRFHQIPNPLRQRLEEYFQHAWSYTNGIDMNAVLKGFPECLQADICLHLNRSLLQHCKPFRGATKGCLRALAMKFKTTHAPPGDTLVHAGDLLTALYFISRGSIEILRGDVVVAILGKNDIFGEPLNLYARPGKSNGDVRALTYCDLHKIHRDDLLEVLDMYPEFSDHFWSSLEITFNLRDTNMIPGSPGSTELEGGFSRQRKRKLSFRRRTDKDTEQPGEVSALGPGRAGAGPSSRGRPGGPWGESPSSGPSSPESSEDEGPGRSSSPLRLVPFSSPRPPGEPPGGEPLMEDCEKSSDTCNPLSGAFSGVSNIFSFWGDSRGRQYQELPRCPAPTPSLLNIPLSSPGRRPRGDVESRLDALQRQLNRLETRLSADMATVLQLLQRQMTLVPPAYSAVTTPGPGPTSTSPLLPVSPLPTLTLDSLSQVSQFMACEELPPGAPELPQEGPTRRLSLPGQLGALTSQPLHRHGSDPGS
row,SMILES,"hERG current change (%, negative = inhibition) at 1uM [%]"
1,Cc1ccc(CN2CCC(CNC(=O)C3CCCN(c4ncnc5c4nc4n5CCCCC4)C3)CC2)cc1 (stereo not drawn),-2.59
2,CCOc1cccc(C2C(C(=O)c3ccco3)=C(O)C(=O)N2c2nnc(C)s2)c1 (stereo not drawn),3.54
3,O=C(N/N=C/c1ccc(N2CCOCC2)s1)c1ccccc1Br,15.9
4,COc1ccc(NC(=O)C(=O)N/N=C/c2cc(C)n(-c3cccc(Cl)c3Cl)c2C)c(OC)c1,4.55
5,O=c1oc2ccccc2c2nccnc12,11.6
6,COc1ccc(Nc2nc3ccccc3n3cnnc23)cc1Cl,14.4
7,COc1ccc(OC)c(N2C(=O)C(Cl)=C(N3CCCCC3)C2=O)c1,-1.86
8,COc1ccc(OC)c(C(=O)c2ccc(C(=O)Nc3ccccc3)cc2)c1,10.3
9,O=C(NCC1CCCO1)C(c1cccs1)N(Cc1cccs1)C(=O)c1ccc(-c2ccccc2)[nH]1 (stereo not drawn),16.7
10,O=S(=O)(c1ccccc1)C1CON(Cc2ccccc2)C1c1ccccc1 (stereo not drawn),9.91
11,COc1cc(/C=N/NC(N)=O)ccc1OCC(=O)N1C(C)CCCC1C (stereo not drawn),8.85
12,O=C(CCCCCn1c(=S)[nH]c2ccccc2c1=O)N1CCC2(CC1)OCCO2,4.05
13,COc1ccc(C(C)=O)cc1CSc1ncccn1,7.7
14,CCOC(=O)c1cc2c(ccn2C)n1Cc1ccccc1C,14.8
15,CC(C)C(=O)NN(C(=O)C(C)C)c1nc2ccccc2s1,11.4
16,CCOc1cc(CNCCc2ccccc2F)ccc1OC.O=C(O)C(=O)O,-13.9
17,O=S(=O)(Cc1ccccc1)c1cnc2ccccc2n1,11
18,O=C(NCc1cccs1)c1ccccc1C(=O)NCc1cccs1,-14.4
19,CCCCN(C(=O)c1ccc2c(c1)OCCO2)c1c(N)n(CCCC)c(=O)[nH]c1=O,-7.57
20,COc1ccc(CNC(=O)CN(C)S(=O)(=O)c2ccc3c(c2)OCCO3)cc1OC,15.2
21,Cc1[nH]c2ccccc2c1/C=N/NC(=O)CNC(=O)c1ccc2c(c1)OCO2,5.11
22,CSc1ccc(CNC(=O)Cc2ccc(NC(=O)C3=C(C)OCCS3)cc2)cc1,39.5
23,O=C(NCCCO)/C(=C\c1ccco1)NC(=O)c1ccco1,4.16
24,COc1ccccc1NC(=O)c1c([N+](=O)[O-])cnn1C,13.4

# Reference: article PMC4336329 (PLoS ONE, 2015)
